# Experimental data taken from article PMC8060364, “RNA binding of Hfq monomers promotes RelA-mediated hexamerization in a limiting Hfq environment” (Nature Communications, 2021).
# Biological target: T1, Hfq wild type (purified) (E. coli, UniProt P0A6X3)
# T1 construct: RNA chaperone Hfq of E. coli; the hfq gene amplified with primers 2687-2351 and cloned in pET-15b with NcoI/BamHI; No tag is stated for Hfq although it was purified on a His Trap column; Cloning at NcoI/BamHI of pET-15b probably leaves out the vector's His tag (surmise); also called PT7-Hfq; source: E. coli BL21-DE3 Δhfq carrying pET-15b, purified (heated at 85 °C, RNase A, His Trap Chelating HP …)
# Assay: native gel or EMSA; limiting wild type Hfq (from 0.5 nM) mixed with Hfq mutant (4.5 nM) at different ratios, with RelA and labeled RNA (1 nM; sodA 210 nt or RyhB 50 nt), binding buffer C, 22 °C for 10 min, 4% native gel; the labeled RNA is what is seen
# Details: both partners purified
row,Binder,binding result
1,"Hfq:D9A proximal face mutant (purified) (natural protein, Hfq of E. coli with D9A, introduced in PT7-Hfq (primers 3168-3169); Same construct as m1 except for the mutation; No tag is stated; source: E. coli BL21-DE3 Δhfq carrying pET-15b, purified (heated at 85 °C, RNase A, His Trap Chelating HP column)) not shown",binds
2,"Hfq:G29A distal mutant (purified) (natural protein, Hfq of E. coli with G29A, introduced in PT7-Hfq (primers 3170-3171); Same construct as m1 except for the mutation; No tag is stated; source: E. coli BL21-DE3 Δhfq carrying pET-15b, purified (heated at 85 °C, RNase A, His Trap Chelating HP column)) not shown",binds
3,"Hfq:I30D distal mutant (purified) (natural protein, Hfq of E. coli with I30D, introduced in PT7-Hfq (primers 3054-3055); Same construct as m1 except for the mutation; No tag is stated; source: E. coli BL21-DE3 Δhfq carrying pET-15b, purified (heated at 85 °C, RNase A, His Trap Chelating HP column)) not shown",binds
